# The supplement of paper PMC11417369
# ± gives the standard deviation of the averaged measurements. Some of the results follow.
# Test system: PfAP2-LT AP2 domain (GST-tagged)
# Experiment: gcPBM binding intensity (ln(normalized median fluorescence intensity)); higher = stronger DNA binding
# Outline: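 The highest Masliner-normalised natural-log median intensity across replicate spots of either probe orientation is reported as binding intensity. GST-tagged P. falciparum DNA-binding domains expressed in E. coli were applied for 1 h to an Agilent 4 × 180k array of primer-extended double-stranded 36-bp intergenic genomic probes plus negative controls, and bound protein was detected with Alexa488 anti-GST antibody and scanned at 488 nm.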
row,Sequence,gcPBM binding intensity (ln)
1,TTATTTCAAAGTTGTTGTACAAAAATATATTTATAA [XGTACX_site5226],8.49 ± 0.53
2,AATTAAAAAGTTTTTAATGTTTTTAATTTTTTCCAC [XGTACX_negctrl_site423],8.35 ± 0.52
3,AAAAAAATAATGTACACACACATATATGTTTATATA [CACACA_site6234],9.18 ± 0.38
4,TATATAAATTATGTGAGTACATAATTTAGAAGGAAC [XGTACX_site2807],8.89 ± 0.57
5,AAAGGTGTATTTAATACACACGTGTCATTAAAATTG [CACACA_site4508],8.95 ± 0.29
6,TTAAAAAACTATAATACACACCAAAAATATGCACAT [CACACA_site7079],9.02 ± 0.33
7,AATATAAATATAAATTGTACTTAAAAATTTCACGCA [XGTACX_site5234],8.62 ± 0.49
8,TTTCGTTGTGTATTTTGTACATATTTTTAATTATAT [XGTACX_site6687],9.02 ± 0.47
9,TCCTTTTGAACCCTTTTTCTCACAAGACCTTTATAT [TGCATGCA_negctrl_site413],8.59 ± 0.56
10,TTTTTTTTTTATTCTTCACACATTTCCAATAAAAAA [CACACA_site5601],8.46 ± 0.35
11,GTTATTATATATATGTGTACTTAAAAATTTTATGTC [XGTACX_site6084],8.79 ± 0.54
12,TATAACAAAAAAAAATAAAAAATAAAACTATATATA [CACACA_negctrl_site504],8.5 ± 0.59
13,AATAAAAAAAAAATAAATTTAATAATAATAATAAAA [CACACA_negctrl_site569],8.34 ± 0.64
14,TGTATATATATTTATGCATGCTGTGTGTATTCTTTT [TGCATGCA_site74],9.46 ± 0.34
15,TTTATATATTTTAGGAGTACATTAAATTATACCTTA [XGTACX_site5600],8.3 ± 0.51
16,AAAAAAAAAAAAAAAACACACAGAAATATATATATA [CACACA_site4611],9.14 ± 0.33
17,AAAGAAGGGAAACACACACACACACCCACAAAAAAA [CACACA_site3766],10.18 ± 0.099
18,TACATACATACATACACACACATATATATATATATA [CACACA_site1944],9.8 ± 0.18
19,ATTTTTTCATATTCTACACACGTGAACAAATGAGTC [CACACA_site5635],9.06 ± 0.41
20,TATCATATTTTTATATGTACATAACATAAAAAAAAA [XGTACX_site2152],8.31 ± 0.45
21,AACAGACAAAGACACACACACATACATACATACATA [CACACA_site6351],10.1 ± 0.35
22,TGATTTGTGCCGATTTGTACACATTTATATATATAT [XGTACX_site2154],9.13 ± 0.35
23,TTTTTTTTATGTATCACACATAATTTTTTATTATGA [CACACA_site5534],8.64 ± 0.44
24,AGAAAGAAAATATATACACACAAAAAAAAATATATA [CACACA_site1412],9.02 ± 0.38
